Experimental data: the supplement of paper PMC8728848
Some of the results follow.

Tests used:
Assay in all cases: glycan array binding signal (z-score within array); higher = stronger binding
Settings in all cases: glycan notation: IUPAC condensed, linker removed
[1] = molecular target: Gal(b1-4)GlcNAc(b1-2)[Gal(b1-4)GlcNAc(b1-6)]Man(a1-6)[Gal(b1-4)GlcNAc(b1-2)Man(a1-3)]Man(b1-4)GlcNAc(b1-4)[Fuc(a1-6)]GlcNAc
Summary of the method: (§1)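 Glycan array data were curated from 3228 arrays in the Consortium for Functional Glycomics database and kept only where the protein sequence was available. Glycan names were converted to IUPAC-condensed notation, and columns mapping to the same glycan were averaged. The binding signal is a within-array Z-score, averaged across arrays of the same protein sequence at different concentrations or buffers and across linkers. Negative Z-scores can be read as non-binding.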

[2] = molecular target: Gal(b1-4)GlcNAc(b1-2)[Gal(b1-4)GlcNAc(b1-6)]Man(a1-6)[GlcNAc(b1-4)][Gal(b1-4)GlcNAc(b1-2)Man(a1-3)]Man(b1-4)GlcNAc(b1-4)GlcNAc
Summary of the method: as §1

[3] = molecular target: Gal(b1-4)GlcNAc(b1-2)[Gal(b1-4)GlcNAc(b1-6)]Man(a1-6)[GlcNAc(b1-4)][Gal(b1-4)GlcNAc(b1-2)[Gal(b1-4)GlcNAc(b1-4)]Man(a1-3)]Man(b1-4)GlcNAc(b1-4)[Fuc(a1-6)]GlcNAc
Summary of the method: as §1

[4] = molecular target: Gal(b1-4)GlcNAc(b1-3)Gal(b1-3)GalNAc
Summary of the method: as §1

[5] = molecular target: Gal(b1-4)GlcNAc(b1-3)Gal(b1-3)GlcNAc
Summary of the method: as §1

[6] = molecular target: Gal(b1-4)GlcNAc(b1-3)Gal(b1-4)Glc
Summary of the method: as §1

[7] = molecular target: Gal(b1-4)GlcNAc(b1-3)Gal(b1-4)GlcNAc
Summary of the method: as §1

[8] = molecular target: Gal(b1-4)GlcNAc(b1-3)Gal(b1-4)GlcNAc(b1-2)Man(a1-3)[Gal(b1-4)GlcNAc(b1-3)Gal(b1-4)GlcNAc(b1-2)Man(a1-6)]Man(b1-4)GlcNAc(b1-4)GlcNAc
Summary of the method: as §1

[9] = molecular target: Gal(b1-4)GlcNAc(b1-3)Gal(b1-4)GlcNAc(b1-2)Man(a1-3)[Gal(b1-4)GlcNAc(b1-3)Gal(b1-4)GlcNAc(b1-2)Man(a1-6)]Man(b1-4)GlcNAc(b1-4)[Fuc(a1-6)]GlcNAc
Summary of the method: as §1

[10] = molecular target: Gal(b1-4)GlcNAc(b1-3)Gal(b1-4)GlcNAc(b1-2)[Gal(b1-4)GlcNAc(b1-3)Gal(b1-4)GlcNAc(b1-6)]Man(a1-6)[Gal(b1-4)GlcNAc(b1-3)Gal(b1-4)GlcNAc(b1-2)Man(a1-3)]Man(b1-4)GlcNAc(b1-4)GlcNAc
Summary of the method: as §1

[11] = molecular target: Gal(b1-4)GlcNAc(b1-3)Gal(b1-4)GlcNAc(b1-2)[Gal(b1-4)GlcNAc(b1-3)Gal(b1-4)GlcNAc(b1-6)]Man(a1-6)[Gal(b1-4)GlcNAc(b1-3)Gal(b1-4)GlcNAc(b1-2)Man(a1-3)]Man(b1-4)GlcNAc(b1-4)[Fuc(a1-6)]GlcNAc
Summary of the method: as §1

[12] = molecular target: Gal(b1-4)GlcNAc(b1-3)Gal(b1-4)GlcNAc(b1-3)Gal(b1-4)GlcNAc
Summary of the method: as §1

[13] = molecular target: Gal(b1-4)GlcNAc(b1-3)Gal(b1-4)GlcNAc(b1-3)Gal(b1-4)GlcNAc(b1-2)Man(a1-3)[Gal(b1-4)GlcNAc(b1-3)Gal(b1-4)GlcNAc(b1-3)Gal(b1-4)GlcNAc(b1-2)Man(a1-6)]Man(b1-4)GlcNAc(b1-4)GlcNAc
Summary of the method: as §1

[14] = molecular target: Gal(b1-4)GlcNAc(b1-3)Gal(b1-4)GlcNAc(b1-3)Gal(b1-4)GlcNAc(b1-2)Man(a1-3)[Gal(b1-4)GlcNAc(b1-3)Gal(b1-4)GlcNAc(b1-3)Gal(b1-4)GlcNAc(b1-2)Man(a1-6)]Man(b1-4)GlcNAc(b1-4)[Fuc(a1-6)]GlcNAc
Summary of the method: as §1

[15] = molecular target: Gal(b1-4)GlcNAc(b1-3)Gal(b1-4)GlcNAc(b1-3)Gal(b1-4)GlcNAc(b1-2)[Gal(b1-4)GlcNAc(b1-3)Gal(b1-4)GlcNAc(b1-3)Gal(b1-4)GlcNAc(b1-6)]Man(a1-6)[Gal(b1-4)GlcNAc(b1-3)Gal(b1-4)GlcNAc(b1-3)Gal(b1-4)GlcNAc(b1-2)Man(a1-3)]Man(b1-4)GlcNAc(b1-4)[Fuc(a1-6)]GlcNAc
Summary of the method: as §1

[16] = molecular target: Gal(b1-4)GlcNAc(b1-3)Gal(b1-4)GlcNAc(b1-3)Gal(b1-4)GlcNAc(b1-3)Gal(b1-4)GlcNAc(b1-2)Man(a1-3)[Gal(b1-4)GlcNAc(b1-3)Gal(b1-4)GlcNAc(b1-3)Gal(b1-4)GlcNAc(b1-3)Gal(b1-4)GlcNAc(b1-2)Man(a1-6)]Man(b1-4)GlcNAc(b1-4)GlcNAc
Summary of the method: as §1

[17] = molecular target: Gal(b1-4)GlcNAc(b1-3)Gal(b1-4)GlcNAc(b1-3)Gal(b1-4)GlcNAc(b1-3)Gal(b1-4)GlcNAc(b1-2)Man(a1-3)[Gal(b1-4)GlcNAc(b1-3)Gal(b1-4)GlcNAc(b1-3)Gal(b1-4)GlcNAc(b1-3)Gal(b1-4)GlcNAc(b1-2)Man(a1-6)]Man(b1-4)GlcNAc(b1-4)[Fuc(a1-6)]GlcNAc
Summary of the method: as §1

[18] = molecular target: Gal(b1-4)GlcNAc(b1-3)Gal(b1-4)GlcNAc(b1-3)Gal(b1-4)GlcNAc(b1-3)Gal(b1-4)GlcNAc(b1-2)[Gal(b1-4)GlcNAc(b1-3)Gal(b1-4)GlcNAc(b1-3)Gal(b1-4)GlcNAc(b1-3)Gal(b1-4)GlcNAc(b1-6)]Man(a1-6)[Gal(b1-4)GlcNAc(b1-3)Gal(b1-4)GlcNAc(b1-3)Gal(b1-4)GlcNAc(b1-3)Gal(b1-4)GlcNAc(b1-2)Man(a1-3)]Man(b1-4)GlcNAc(b1-4)[Fuc(a1-6)]GlcNAc
Summary of the method: as §1

[19] = molecular target: Gal(b1-4)GlcNAc(b1-3)Gal(b1-4)GlcNAc(b1-3)Gal(b1-4)GlcNAc(b1-3)Gal(b1-4)GlcNAc(b1-3)Gal(b1-4)GlcNAc(b1-2)Man(a1-3)[Gal(b1-4)GlcNAc(b1-3)Gal(b1-4)GlcNAc(b1-3)Gal(b1-4)GlcNAc(b1-3)Gal(b1-4)GlcNAc(b1-3)Gal(b1-4)GlcNAc(b1-2)Man(a1-6)]Man(b1-4)GlcNAc(b1-4)GlcNAc
Summary of the method: as §1

[20] = molecular target: Gal(b1-4)GlcNAc(b1-3)Gal(b1-4)GlcNAc(b1-3)Gal(b1-4)GlcNAc(b1-3)Gal(b1-4)GlcNAc(b1-3)Gal(b1-4)GlcNAc(b1-2)Man(a1-3)[Gal(b1-4)GlcNAc(b1-3)Gal(b1-4)GlcNAc(b1-3)Gal(b1-4)GlcNAc(b1-3)Gal(b1-4)GlcNAc(b1-3)Gal(b1-4)GlcNAc(b1-2)Man(a1-6)]Man(b1-4)GlcNAc(b1-4)[Fuc(a1-6)]GlcNAc
Summary of the method: as §1

[21] = molecular target: Gal(b1-4)GlcNAc(b1-3)Gal(b1-4)GlcNAc(b1-3)Gal(b1-4)GlcNAc(b1-3)Gal(b1-4)GlcNAc(b1-3)Gal(b1-4)GlcNAc(b1-2)[Gal(b1-4)GlcNAc(b1-3)Gal(b1-4)GlcNAc(b1-3)Gal(b1-4)GlcNAc(b1-3)Gal(b1-4)GlcNAc(b1-3)Gal(b1-4)GlcNAc(b1-6)]Man(a1-6)[Gal(b1-4)GlcNAc(b1-3)Gal(b1-4)GlcNAc(b1-3)Gal(b1-4)GlcNAc(b1-3)Gal(b1-4)GlcNAc(b1-3)Gal(b1-4)GlcNAc(b1-2)Man(a1-3)]Man(b1-4)GlcNAc(b1-4)[Fuc(a1-6)]GlcNAc
Summary of the method: as §1

[22] = molecular target: Gal(b1-4)GlcNAc(b1-3)Gal(b1-4)GlcNAc(b1-3)Gal(b1-4)GlcNAc(b1-3)Gal(b1-4)GlcNAc(b1-3)Gal(b1-4)GlcNAc(b1-3)Gal(b1-4)GlcNAc(b1-2)Man(a1-3)[Gal(b1-4)GlcNAc(b1-3)Gal(b1-4)GlcNAc(b1-3)Gal(b1-4)GlcNAc(b1-3)Gal(b1-4)GlcNAc(b1-3)Gal(b1-4)GlcNAc(b1-3)Gal(b1-4)GlcNAc(b1-2)Man(a1-6)]Man(b1-4)GlcNAc(b1-4)GlcNAc
Summary of the method: as §1

[23] = molecular target: Gal(b1-4)GlcNAc(b1-3)Gal(b1-4)GlcNAc(b1-3)GalNAc
Summary of the method: as §1

B1: DC-ASGPR S+GEE (Homo sapiens) (protein)
chain: MTRTYENFQYLENKVKVQGFKNGPLPLQSLLQRLRSGPCHLLLSLGLGLLLLVIICVVGFQNSKFQRDLVTLRTDFSNFTSNTVAEIQALTSQGSSLEETIASLKAEVEGFKQERQAVHSEMLLRVQQLVQDLKKLTCQVATINNNGEEASTEGTCCPVNWVEHQDSCYWFSHSGMSWAEAEKYCQLKNAHLVVINSREEQNFVQKYLGSAYTWMGLSDPEGAWKWVDGTDYATGFQNWKPGQPDDWQGHGLGGGEDCAHFHPDGRWNDDVCQRPYHWVCEAGLGQTSQESH
[1]
  glycan array binding signal (z-score): -0.329
[2]
  glycan array binding signal (z-score): -0.274
[3]
  glycan array binding signal (z-score): -0.359
[4]
  glycan array binding signal (z-score): -0.649
[5]
  glycan array binding signal (z-score): -0.324
[6]
  glycan array binding signal (z-score): -0.303
[7]
  glycan array binding signal (z-score): -0.268
[8]
  glycan array binding signal (z-score): -0.28
[9]
  glycan array binding signal (z-score): -0.417
[10]
  glycan array binding signal (z-score): 0.176
[11]
  glycan array binding signal (z-score): -0.301
[12]
  glycan array binding signal (z-score): -0.321
[13]
  glycan array binding signal (z-score): -0.277
[14]
  glycan array binding signal (z-score): -0.481
[15]
  glycan array binding signal (z-score): -0.356
[16]
  glycan array binding signal (z-score): -0.235
[17]
  glycan array binding signal (z-score): -0.335
[18]
  glycan array binding signal (z-score): -0.145
[19]
  glycan array binding signal (z-score): -0.04
[20]
  glycan array binding signal (z-score): -0.153
[21]
  glycan array binding signal (z-score): 0.027
[22]
  glycan array binding signal (z-score): -0.167
[23]
  glycan array binding signal (z-score): -0.337
